# Experimental data taken from publication PMC4336329 (PLoS ONE, 2015).
# Screen size: about 310,000 compounds; about 2,200 (0.71%) showed an effect of 50% or more. The effect is printed as a negative number. The list shows a part of the results.
# Target: human ether-à-go-go-related gene (hERG) potassium channel (human, UniProt Q12809)
# Test: primary screen, population patch clamp on CHO cells stably expressing hERG
# human ether-à-go-go-related gene (hERG) potassium channel, sequence (Q12809 whole entry, looked up): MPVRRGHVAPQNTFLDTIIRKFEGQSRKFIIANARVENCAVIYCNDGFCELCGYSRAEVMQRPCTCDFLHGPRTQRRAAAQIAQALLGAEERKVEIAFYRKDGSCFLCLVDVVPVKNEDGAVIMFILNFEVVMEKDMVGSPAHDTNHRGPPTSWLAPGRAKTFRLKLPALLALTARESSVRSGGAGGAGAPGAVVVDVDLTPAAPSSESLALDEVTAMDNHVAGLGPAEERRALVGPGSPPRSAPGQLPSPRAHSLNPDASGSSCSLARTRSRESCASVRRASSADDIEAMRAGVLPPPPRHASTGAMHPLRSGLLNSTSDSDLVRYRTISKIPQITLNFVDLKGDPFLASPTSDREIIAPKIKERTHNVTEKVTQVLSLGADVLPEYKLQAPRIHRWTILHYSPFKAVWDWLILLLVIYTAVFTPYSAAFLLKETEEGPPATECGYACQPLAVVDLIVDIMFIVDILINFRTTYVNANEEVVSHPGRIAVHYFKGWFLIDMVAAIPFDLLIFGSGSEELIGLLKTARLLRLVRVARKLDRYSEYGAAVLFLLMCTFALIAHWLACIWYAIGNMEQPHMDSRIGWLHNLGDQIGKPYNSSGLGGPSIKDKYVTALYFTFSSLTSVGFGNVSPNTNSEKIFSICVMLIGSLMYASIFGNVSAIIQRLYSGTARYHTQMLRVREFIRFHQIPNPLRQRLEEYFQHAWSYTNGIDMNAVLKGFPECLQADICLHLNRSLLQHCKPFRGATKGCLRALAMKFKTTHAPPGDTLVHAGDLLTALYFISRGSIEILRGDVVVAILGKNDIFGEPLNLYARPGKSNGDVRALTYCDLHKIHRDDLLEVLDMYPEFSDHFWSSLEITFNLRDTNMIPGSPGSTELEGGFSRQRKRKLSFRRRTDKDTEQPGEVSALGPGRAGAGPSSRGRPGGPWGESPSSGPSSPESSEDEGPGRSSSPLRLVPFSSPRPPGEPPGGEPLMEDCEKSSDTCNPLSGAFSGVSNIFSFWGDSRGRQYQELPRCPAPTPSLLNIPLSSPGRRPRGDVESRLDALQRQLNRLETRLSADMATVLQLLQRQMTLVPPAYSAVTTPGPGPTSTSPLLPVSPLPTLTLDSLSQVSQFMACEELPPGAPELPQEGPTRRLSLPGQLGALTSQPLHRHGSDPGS
row,Compound,"hERG current change (%, negative = inhibition) at 1uM"
1,CCCN=C1NC(=O)C(CC(=O)NCCc2ccc(OC)c(OC)c2)S1 (stereo not drawn),8.63%
2,COc1ccc(C(=O)NNC(=O)c2ccccn2)cc1,14.1%
3,Nc1ccccc1C(=O)OCc1ccc([N+](=O)[O-])cc1,14.2%
4,Cn1cc(C(=O)OCC(=O)Nc2ccccc2)c2ccccc21,6.61%
5,Cc1ncc([N+](=O)[O-])n1CC(=O)NCc1ccccc1,6.08%
6,Cn1c(C(=O)NCC2CCCO2)cc2c(=O)[nH]c3ccccc3c21 (stereo not drawn),16.1%
7,O=C(CCC1CCCN(C(=O)Cc2cccc(F)c2)C1)N1CCN(c2ccccn2)CC1 (stereo not drawn),10.5%
8,COc1cc(OC)c(N2CC(C(=O)NCCC3=CCCCC3)CC2=O)cc1Cl (stereo not drawn),6.59%
9,O=C(COc1ccc(Cl)cc1)OCC(=O)N1CCCCCC1,0.115%
10,Cc1c(Cl)c([N+](=O)[O-])nn1CCCC(=O)Nc1cc(Cl)ccc1Cl,-10.9%
11,Cc1ccc(S(=O)(=O)N2CCOCC2)cc1C(=O)Nc1ccc(-c2cn3ccsc3n2)cc1,-1.19%
12,CN1C(=O)CSC1=Nc1ccc(Br)cc1,12.5%
13,CCCCn1c(NC(=O)c2ccccc2)nc2ccccc21,4.77%
14,Cn1c(SCc2ccc(Br)cc2)nnc1-c1cccs1,3.25%
15,O=c1nc(N2CCCC2)nc(N2CCCC2)[nH]1,10.1%
16,O=C(N/N=C\c1ccc([N+](=O)[O-])o1)C1COc2ccccc2O1 (stereo not drawn),-20.3%
17,Cc1cc(C)c2c3c(sc2n1)C(=O)N(c1ccccc1C)CC(=O)N3,15%
18,CCCCn1cnc2c(oc3ccccc32)c1=O,10%
19,CC(NS(=O)(=O)c1cccc(Cl)c1)C(=O)N(C)C1CCN(C)CC1 (stereo not drawn),13.7%
20,O=C(NC1CC1)C1=C[C@H](C2CCCCC2)C[C@H](OCc2ccc(CO)cc2)O1,7.06%
21,CC(C)(C)SC(=O)C[C@@H]1NS(=O)(=O)OC2CCCCC21 (stereo partly drawn),5.66%
22,CC(C)NC(=S)N1CCN(C/C=C/c2ccccc2)CC1,7.73%
23,O=C(CN1CC=C(c2ccccc2)CC1)Nc1cc(Cl)ccc1Cl,-0.882%

row,Compound,"hERG current change (%, negative = inhibition) at 1uM"
1,S=C(NCCc1ccccc1)Nc1ccc(Br)cn1,8.86%
2,Cc1cc(=O)[nH]c(SCC(=O)NCCc2ccccc2)n1,-3.82%
3,COC(=O)CN1C2(C#N)CCCCC2CC2CCCCC21C#N (stereo not drawn),2.8%
4,COC(=O)c1ccccc1-n1c(CCC(=O)O)ccc1-c1ccc(F)cc1,11%
5,CCOC(=O)C1=NN(c2ccccc2)C2=NC(C)=C(C(=O)OC)C(c3ccc(C)cc3)N12 (stereo not drawn),2.98%
6,COc1ccc(N2CCN(C3CCCN(Cc4ccc(F)cc4)C3)CC2)cc1 (stereo not drawn),0.279%
7,COc1cc(OC)c(/C=N/N2CCN(c3ccccc3OC)CC2)c(OC)c1,11.2%
8,O=C(Nc1cccc(C(F)(F)F)c1)c1cc2ncc(Br)cn2n1,13.8%
9,COc1ccccc1NC(=S)NNC(=O)c1c(Cl)c(C)nn1C,13.5%
10,Cc1ccc(CNc2nc(C)nc3sc4c(c23)CCC4)cc1,-1.86%
11,CCOC(=O)N1CCN(C(=O)CN(C2CCCCC2)S(=O)(=O)c2ccc(F)cc2)CC1,4.7%
12,Cc1nc2ccccc2c2nc(N)nn12,-7.08%
13,CCN1CCCC1CNc1ccc(S(C)(=O)=O)cc1[N+](=O)[O-] (stereo not drawn),-10%
14,COc1ccc2nc3ccccc3nc2c1NC(=O)c1ccccc1Cl,-1.38%
15,CCC1CCCCN1C(=O)c1ccc(OC2CCN(C(=O)COC)CC2)cc1 (stereo not drawn),7.56%
16,O=C(CCCCCN1C(=O)c2ccccc2C1=O)Nc1cccc(O)c1,9.29%
17,Cc1cc(C(=O)CSc2ncnc3ccccc23)c(C)n1C1CC1,12%
18,O=C(COc1ccc(Cl)cc1)Nc1cccc(S(=O)(=O)NC2=NCCCCC2)c1,-3.24%
19,Cc1ccc(N(CC(O)CN2CCOCC2)S(=O)(=O)c2ccc([N+](=O)[O-])cc2)cc1 (stereo not drawn),-49.1%
20,CCc1cc(=O)oc2cc(OCc3nn[nH]n3)ccc12,7.16%
21,C[N+](C)(C)CC/C=C1/c2ccccc2CSc2ccccc21.[I-],9.18%
22,CCOC(=O)c1ccc(NC(=O)CC2S/C(=N/N=C3/NC(=O)CS3)NC2=O)cc1 (stereo not drawn),14.4%
23,Cc1noc(-c2ccc(C(F)(F)F)cc2)c1NC(=O)Nc1ccc(Cl)cc1,18.7%

row,Compound,"hERG current change (%, negative = inhibition) at 1uM"
1,CNNC(=S)NC1CC2CC1C1C=CCC21 (stereo not drawn),12.5%
2,CCn1ccnc1CN1CCCC(C(=O)c2ccc(SC)cc2)C1 (stereo not drawn),-12.7%
3,NS(=O)(=O)c1ccc(CCNC(=O)C2Cc3ccccc3CN2C(=O)c2ccco2)cc1 (stereo not drawn),6.99%
4,S=c1nc(-c2ccccc2)n(CCCN2CCOCC2)c2c1CCCC2,2.38%
5,Cc1ccc(S(=O)(=O)CCC(=O)Nc2sccc2C#N)cc1,6.13%
6,CCCCCCc1cc2cc(-c3nnc(-c4cc(OC)c(OC)c(OC)c4)o3)c(=O)oc2cc1O,6.29%
7,COc1ccc(-c2c(C)nn3c(N4CCCCCC4)cc(C)nc23)cc1OC,11%
8,COc1cc(C(=S)N2CCCC2)ccc1OS(=O)(=O)c1ccc(NC(C)=O)cc1,0.642%
9,COC(=O)C1=NN(c2ccc(OC)cc2)C2C(=O)N(c3ccccc3OC)C(=O)C12 (stereo not drawn),11.3%
10,C=CCNC(=O)CN1C(=O)NC(C)(c2ccc(OC)cc2)C1=O (stereo not drawn),-0.0235%
11,O=C(/C=C/c1ccccc1[N+](=O)[O-])N1CCN(c2ccc(F)cc2)CC1,-14.5%
12,Clc1ccc(OCCn2cnc(Cl)c2Cl)cc1,4.77%
13,S=C(NCCc1ccccc1)N1CCCC1,13.1%
14,CCCCNC(=S)Nc1cccc(C(C)=O)c1,3.07%
15,CCN(CC)S(=O)(=O)c1ccc(S(=O)(=O)N2CCCC2C(=O)O)cc1 (stereo not drawn),2.77%
16,O=S(=O)(NCc1ccccc1Cl)c1cnc[nH]1,17.3%
17,c1ccc2c(c1)ncn2Cc1nnc2sc(-c3ccncc3)nn12,-2.74%
18,O=C1OCCC1Sc1nnnn1-c1ccccc1 (stereo not drawn),-5.01%
19,S=C(NC1CCCCC1)N1CCOCC1,13%
20,O=C(Nc1nccs1)c1cc(S(=O)(=O)N2CCOCC2)ccc1Cl,4.47%
21,COc1cccc(NC(=O)Nn2cnnc2)c1,19.4%
22,Cn1c(=O)[nH]c(=O)c2c1nc(N1CCOCC1)n2CCN1CCOCC1,26.3%
23,CC(C)[C@H](NC(=O)NCCC1=CCCCC1)C(=O)O,7.62%

row,Compound,"hERG current change (%, negative = inhibition) at 1uM"
1,CCC(CC)NC(=O)COC(=O)c1ccc(OCc2ccc(C(C)=O)cc2OC)c(OC)c1,10.9%
2,CCn1nc(C)cc1C(=O)n1nc(C)c(Sc2ncccn2)c1C,6.34%
3,O/N=C/c1cccc[n+]1CCCCCC[n+]1ccccc1/C=N/O.[Br-],18%
4,Cc1ccc(N2C(=O)C3ON(c4ccccc4)C(c4ccncc4)C3C2=O)cc1 (stereo not drawn),-4.9%
5,COc1cc2c(cc1NC(=O)/C=C/c1ccc([N+](=O)[O-])cc1)oc1ccccc12,13.6%
6,Cc1ccccc1OCCNc1cc(N2CCN(CCO)CC2)ccc1[N+](=O)[O-],2.6%
7,NNC(=O)c1cccnc1Oc1ccccc1,4.74%
8,COC(=O)CNC(c1ccccc1)c1cc(C)ccc1NS(=O)(=O)c1ccc(C)cc1 (stereo not drawn),2.31%
9,O=C(NN1C(=O)C2C3C=CC(C4CC34)C2C1=O)c1ccc(Cl)cc1Cl (stereo not drawn),11.5%
10,O=C(CSc1ccccn1)Nc1ccc2c(c1)oc1ccccc12,13.8%
11,O=P(c1ccccc1)(c1ccccc1)c1cc(S(=O)(=O)[O-])ccc1O.[Na+],13.5%
12,Cc1noc(C)c1COc1ccc(C(=O)NNC(=O)c2ccccc2O)cc1,-5.55%
13,COc1ccc(-c2nnc(NC(=O)c3cc(C)on3)s2)cc1,-4.58%
14,COc1cc(/C=C2/C(=O)N(c3ccc(Br)cc3)N=C2C)cc([N+](=O)[O-])c1O,18.1%
15,O=C(N/N=C1\CCSc2ccc(F)cc21)c1cccnc1,9.55%
16,COc1ccccc1CNC(=O)CCCn1c(=O)c2ccccc2n(CC(=O)NC2CCCC2)c1=O,10.1%
17,CCOC(=O)c1ccc(-c2ccc(/C=N/NC(=O)CN(c3ccccc3Cl)S(C)(=O)=O)o2)cc1,11.2%
18,CCN(c1cccc(C)c1)S(=O)(=O)c1ccc2c(c1)NC(=O)CS2,8.05%
19,COc1c(C)cc(S(=O)(=O)NC2CC(C)(C)NC(C)(C)C2)c(C)c1C,5.89%
20,CC1(c2ccc(OC(F)F)cc2)NC(=O)N(CC(=O)N2CCN(C(=O)c3ccco3)CC2)C1=O (stereo not drawn),9.44%
21,Cc1ccc(C(=O)Oc2cc(C)[nH]c(=O)c2[N+](=O)[O-])cc1,11.7%
